Hit rate of the full screen: of about 310,000 compounds, about 2,200 (0.71%) showed an effect of 50% or more. The effect is printed as a negative number. This is one part of the list.
The compounds below were run against human ether-à-go-go-related gene (hERG) potassium channel (human, UniProt Q12809) (assay: primary screen, population patch clamp on CHO cells stably expressing hERG).
human ether-à-go-go-related gene (hERG) potassium channel, sequence (Q12809 whole entry, looked up): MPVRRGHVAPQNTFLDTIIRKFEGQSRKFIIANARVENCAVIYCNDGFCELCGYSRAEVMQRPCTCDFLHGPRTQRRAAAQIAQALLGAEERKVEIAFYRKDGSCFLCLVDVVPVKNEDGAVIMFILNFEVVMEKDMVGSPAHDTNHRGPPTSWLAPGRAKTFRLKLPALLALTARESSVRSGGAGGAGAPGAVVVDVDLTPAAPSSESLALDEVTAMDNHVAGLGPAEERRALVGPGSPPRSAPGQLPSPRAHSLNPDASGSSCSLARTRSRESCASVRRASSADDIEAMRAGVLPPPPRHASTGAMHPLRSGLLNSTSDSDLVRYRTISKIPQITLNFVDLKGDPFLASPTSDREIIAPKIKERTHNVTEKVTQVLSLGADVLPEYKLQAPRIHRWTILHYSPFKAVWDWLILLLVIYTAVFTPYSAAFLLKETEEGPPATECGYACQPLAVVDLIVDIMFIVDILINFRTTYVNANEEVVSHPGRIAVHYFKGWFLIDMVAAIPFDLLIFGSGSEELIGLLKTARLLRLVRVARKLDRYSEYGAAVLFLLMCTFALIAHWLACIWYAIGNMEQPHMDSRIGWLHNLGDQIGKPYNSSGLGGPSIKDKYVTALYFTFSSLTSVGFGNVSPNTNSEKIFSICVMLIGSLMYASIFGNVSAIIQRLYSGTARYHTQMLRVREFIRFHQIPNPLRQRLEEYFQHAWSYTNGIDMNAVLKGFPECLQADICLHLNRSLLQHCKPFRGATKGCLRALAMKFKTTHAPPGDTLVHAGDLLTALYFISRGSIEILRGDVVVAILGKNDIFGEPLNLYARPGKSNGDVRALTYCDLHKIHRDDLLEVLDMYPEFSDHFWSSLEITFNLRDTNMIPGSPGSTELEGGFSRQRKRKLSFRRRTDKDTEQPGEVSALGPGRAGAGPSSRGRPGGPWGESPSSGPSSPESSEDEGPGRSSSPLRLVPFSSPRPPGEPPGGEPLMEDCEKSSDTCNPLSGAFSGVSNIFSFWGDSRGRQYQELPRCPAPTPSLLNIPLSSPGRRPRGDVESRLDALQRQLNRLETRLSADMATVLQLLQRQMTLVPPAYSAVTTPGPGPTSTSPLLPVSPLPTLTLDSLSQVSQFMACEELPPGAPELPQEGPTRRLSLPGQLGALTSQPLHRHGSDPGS
In the case of `CN(C)S(=O)(=O)c1ccc(C(=O)Nc2cccc(C(=O)N3CCOCC3)c2)cc1`, the “hERG current change (%, negative = inhibition) at 1uM” value is reported as 9.08%.
`CCOC(=O)c1cc(C)n(S(=O)(=O)c2ccc(C)cc2)c1C` was tested, and the “hERG current change (%, negative = inhibition) at 1uM” value was 2.01%.
For `COc1ccc(C2=[N+]([O-])C(C)(C)C(c3ccccc3)=N2)cc1`, the “hERG current change (%, negative = inhibition) at 1uM” value was 3.03%.
With `NC(=O)c1cc(Br)cc(C2CCCCC2)c1O` the “hERG current change (%, negative = inhibition) at 1uM” value was 15.2%.
With `COc1ccc(C(=O)N(c2ccc(OC)cc2)S(=O)(=O)c2cccs2)cc1` the “hERG current change (%, negative = inhibition) at 1uM” value was 13.5%.
For `CC1CCCC(NC(=O)c2ccc3c(c2)OCO3)C1C` (stereo not drawn), the “hERG current change (%, negative = inhibition) at 1uM” value was 8.11%.
In the case of `COc1cc(C(=O)N2CCC(NC(=O)C(Cc3ccccc3)NC(C)=O)CC2)cc(OC)c1OC` (stereo not drawn), the “hERG current change (%, negative = inhibition) at 1uM” value is reported as -8.85%.
For `CN(C)/C=C/C(=O)c1ccc([N+](=O)[O-])c(CS(=O)(=O)c2ccc(Cl)cc2)c1`, the “hERG current change (%, negative = inhibition) at 1uM” value was -10.9%.
In the case of `COc1ccc(NC(=S)N(CCCN2CCOCC2)C(C)c2cc3cccc(OC)c3o2)cc1` (stereo not drawn), the “hERG current change (%, negative = inhibition) at 1uM” value is reported as 3.7%.
`Cc1ccc(C(=O)COc2ccccc2N2C(=O)c3ccccc3C2=O)cc1` was tested, and the “hERG current change (%, negative = inhibition) at 1uM” value was 8.44%.
With `Cc1ccccc1C(=O)NC(=S)Nc1sc2c(c1C#N)CCCC2` the “hERG current change (%, negative = inhibition) at 1uM” value was -3.13%.
For `NC(=O)C1CCN(C(=O)CC2(CC(=O)O)CCCC2)CC1`, the “hERG current change (%, negative = inhibition) at 1uM” value was 20.6%.
For `COC(=O)c1cccc(NC(=O)Cn2cnc3ccccc3c2=O)c1`, the “hERG current change (%, negative = inhibition) at 1uM” value was 10.4%.
In the case of `O=C(CN1CCN(Cc2ccccc2)CC1)NC(=O)NC1CCCCC1`, the “hERG current change (%, negative = inhibition) at 1uM” value is reported as -16.1%.
With `c1cncc(Cc2cc3ccccc3[nH]2)c1` the “hERG current change (%, negative = inhibition) at 1uM” value was 2.84%.
With `COc1cccc(C(=O)Nc2ccncc2)c1` the “hERG current change (%, negative = inhibition) at 1uM” value was 10.6%.
For `Cc1ccc(-c2nnc(SCc3nc4ccccc4[nH]3)n2Cc2ccco2)cc1`, the “hERG current change (%, negative = inhibition) at 1uM” value was 1.29%.
`Cc1ccc(N2CC(C(=O)Nc3nc4ccc(S(C)(=O)=O)cc4s3)CC2=O)cc1` (stereo not drawn) was tested, and the “hERG current change (%, negative = inhibition) at 1uM” value was 1.3%.
For `CCS(=O)(=O)n1nc(-c2cccnc2)nc1NCc1ccc(F)cc1`, the “hERG current change (%, negative = inhibition) at 1uM” value was 5.95%.
For `CCOC(=O)c1c(NC(=O)CSc2cccc[n+]2[O-])sc(C(=O)Nc2ccccc2)c1C`, the “hERG current change (%, negative = inhibition) at 1uM” value was 9.46%.
In the case of `CCC(=O)NC(c1ccc(C)cc1)c1ccc2cccnc2c1O` (stereo not drawn), the “hERG current change (%, negative = inhibition) at 1uM” value is reported as 12.9%.
With `COc1ccccc1OCC(=O)NCCSCc1ccccc1Cl` the “hERG current change (%, negative = inhibition) at 1uM” value was 12.4%.
In the case of `COc1ccccc1NS(=O)(=O)c1cc(C(=O)NCC(c2ccc(F)cc2)N2CCOCC2)ccc1C` (stereo not drawn), the “hERG current change (%, negative = inhibition) at 1uM” value is reported as 11.2%.
For `COC(=O)c1c(NC(C)=O)sc2c1CCN(Cc1ccccc1)C2.Cl`, the “hERG current change (%, negative = inhibition) at 1uM” value was 9.96%.
In the case of `N#CC(C#N)=Cc1ccc(-c2ccccc2F)o1`, the “hERG current change (%, negative = inhibition) at 1uM” value is reported as 11.4%.
`Cc1cc(-c2ccccc2)nc(SCC(=O)N2CCCC2)n1` was tested, and the “hERG current change (%, negative = inhibition) at 1uM” value was 6.86%.
In the case of `S=c1[nH]nc(C2CCCCC2)n1/N=C/c1ccccc1Br`, the “hERG current change (%, negative = inhibition) at 1uM” value is reported as 14.2%.
For `Cc1nn2c(N)c(C#N)cnc2c1-c1ccc(Cl)cc1`, the “hERG current change (%, negative = inhibition) at 1uM” value was 4.37%.
In the case of `O=C(NCCCO)c1cc2c([nH]c3ccccc32)c(-c2ccccc2)n1`, the “hERG current change (%, negative = inhibition) at 1uM” value is reported as 10.4%.
For `COc1ccc(NC(=O)NC2CCCCCCC2)c(OC)c1`, the “hERG current change (%, negative = inhibition) at 1uM” value was 9.77%.
In the case of `O=[N+]([O-])c1cccc(/C=N/Nc2nc(N3CCOCC3)nc(N3CCOCC3)n2)c1`, the “hERG current change (%, negative = inhibition) at 1uM” value is reported as 6.07%.
In the case of `CCCOc1ccc(N2C(=O)C3ON(c4ccccc4)C(c4ccc(O)c(OC)c4)C3C2=O)cc1` (stereo not drawn), the “hERG current change (%, negative = inhibition) at 1uM” value is reported as 7.71%.
With `Cc1ccccc1NS(=O)(=O)c1ccc(NC(=O)CSCc2ccc(Br)cc2)cc1` the “hERG current change (%, negative = inhibition) at 1uM” value was 15.9%.
For `N#Cc1ccccc1OCC(=O)N1CCN(C(=O)c2ccco2)CC1`, the “hERG current change (%, negative = inhibition) at 1uM” value was 12.8%.
In the case of `O=C(NCC1CCCO1)C1CCN(S(=O)(=O)c2cccc3cccnc23)CC1` (stereo not drawn), the “hERG current change (%, negative = inhibition) at 1uM” value is reported as 12.3%.
With `Cc1cc2ccccc2n1CCNC(=O)C(C)Oc1ccccc1` (stereo not drawn) the “hERG current change (%, negative = inhibition) at 1uM” value was 9.73%.
For `O=C(Cn1nc(C(=O)O)c2ccccc2c1=O)Nc1cc(Cl)cc(Cl)c1`, the “hERG current change (%, negative = inhibition) at 1uM” value was 16.2%.
With `O=c1[nH][nH]c(-c2ccccc2)c1C=Nc1ccc(C(F)(F)F)cc1` the “hERG current change (%, negative = inhibition) at 1uM” value was 13.5%.
For `CC(Sc1nc(-c2ccccc2)cc(C(F)(F)F)n1)C(=O)NCc1ccco1` (stereo not drawn), the “hERG current change (%, negative = inhibition) at 1uM” value was 4.96%.
In the case of `NS(=O)(=O)c1cnccc1Oc1cccc(Cl)c1`, the “hERG current change (%, negative = inhibition) at 1uM” value is reported as 15.6%.
In the case of `O=C(CCCC(=O)Nc1ccc(Br)cc1)N/N=C/c1ccccc1`, the “hERG current change (%, negative = inhibition) at 1uM” value is reported as 10.6%.
`O=C(Nc1ccc(-c2nc3ccccc3[nH]2)cc1)c1cccc(N2C(=O)CCC2=O)c1` was tested, and the “hERG current change (%, negative = inhibition) at 1uM” value was 5.42%.
With `O=C(NCCN1CCN(C(=O)C(c2ccccc2)c2ccccc2)CC1)C(=O)Nc1ccccc1` the “hERG current change (%, negative = inhibition) at 1uM” value was 8.21%.
For `NC(=O)c1c(NC(=O)CSc2nnc(-c3ccco3)n2N)sc2c1CCCC2`, the “hERG current change (%, negative = inhibition) at 1uM” value was 13.8%.
For `CCNS(=O)(=O)c1cccc(C(=O)c2c(C)cc3ccccn23)c1`, the “hERG current change (%, negative = inhibition) at 1uM” value was 22.7%.
With `Cc1ccc(S(=O)(=O)Cc2csc(N)n2)cc1` the “hERG current change (%, negative = inhibition) at 1uM” value was 14.2%.
With `CC1=CC(C)C2C(=O)N(c3ccccc3)NC(=O)C2C1` (stereo not drawn) the “hERG current change (%, negative = inhibition) at 1uM” value was 6.46%.
With `COc1ccccc1CC(=O)Nc1cccc(C(=O)NN2C(=O)c3ccccc3C2=O)c1` the “hERG current change (%, negative = inhibition) at 1uM” value was 1.52%.
For `C=CCNC(=O)c1cc2c(=O)c3ccccc3oc2nc1C`, the “hERG current change (%, negative = inhibition) at 1uM” value was -6.21%.
`Cc1noc(C)c1C(=O)OCC(=O)/C=C1\N(C)c2ccccc2C1(C)C` was tested, and the “hERG current change (%, negative = inhibition) at 1uM” value was 11.4%.
In the case of `COC(=O)C1CN(C(=O)c2ccc(OC(F)F)cc2)c2ccccc2O1` (stereo not drawn), the “hERG current change (%, negative = inhibition) at 1uM” value is reported as 12%.
In the case of `CN1CCN(/N=C/c2c(O)n(C)c(=O)n(C)c2=O)CC1`, the “hERG current change (%, negative = inhibition) at 1uM” value is reported as 4.43%.
With `Cc1csc(NC(=O)CSc2nnnn2C)n1` the “hERG current change (%, negative = inhibition) at 1uM” value was 8.07%.
In the case of `Cc1ccccc1Cn1cc(C)c(=O)[nH]c1=O`, the “hERG current change (%, negative = inhibition) at 1uM” value is reported as 8.08%.
`CC(C)NCC(O)COCCOc1ccc(Br)cc1.Cl` (stereo not drawn) was tested, and the “hERG current change (%, negative = inhibition) at 1uM” value was 3.86%.
`COC(=O)c1ccccc1NC(=O)C/C(C)=N/NC(=O)Cc1ccc(Cl)cc1` was tested, and the “hERG current change (%, negative = inhibition) at 1uM” value was 16.3%.
With `CC1=NN(c2ccc(C(F)(F)F)cn2)C(=O)C1` the “hERG current change (%, negative = inhibition) at 1uM” value was -0.755%.

Reference: article PMC4336329 (PLoS ONE, 2015)
